Source: PubChem BioAssay AID504332 (National Center for Advancing Translational Sciences (NCATS), 2011)
Out of some 350,000 compounds screened, about 31,000 (8.9%) were called active. This list was built around the results that the source calls inconclusive (neither active nor inactive); the mix of calls is not that of the screen. Calls follow the shape of the dose curve; as a rule, active = well fitted inhibition curve with a large enough effect; inconclusive = small, poorly fitted or top-dose-only effect; inactive = no such curve, though single readings can be large or run the other way. Potencies beside an inconclusive call are fits to weak or partial responses and may not hold up.
% is scaled to controls: 0 for no effect and ±100 for the full control effect; potency is read from the fitted curve at half-maximal effect; tags tell the direction and shape of the fitted curve.
Also: nearly all actives have a fitted effect of over 75% in size.

The compounds below were run against Histone-lysine N-methyltransferase EHMT2 (Homo sapiens) (UniProt Q96KQ7) (assay: qHTS Assay for Inhibitors of Histone Lysine Methyltransferase G9a). Settings: G9a H3K9 monomethylation, AlphaScreen, 2 h; activity, negative = inhibition: at 59 µM (top of the series) unless noted.
UniProt Q96KQ7, sequence (Q96KQ7 whole entry, looked up): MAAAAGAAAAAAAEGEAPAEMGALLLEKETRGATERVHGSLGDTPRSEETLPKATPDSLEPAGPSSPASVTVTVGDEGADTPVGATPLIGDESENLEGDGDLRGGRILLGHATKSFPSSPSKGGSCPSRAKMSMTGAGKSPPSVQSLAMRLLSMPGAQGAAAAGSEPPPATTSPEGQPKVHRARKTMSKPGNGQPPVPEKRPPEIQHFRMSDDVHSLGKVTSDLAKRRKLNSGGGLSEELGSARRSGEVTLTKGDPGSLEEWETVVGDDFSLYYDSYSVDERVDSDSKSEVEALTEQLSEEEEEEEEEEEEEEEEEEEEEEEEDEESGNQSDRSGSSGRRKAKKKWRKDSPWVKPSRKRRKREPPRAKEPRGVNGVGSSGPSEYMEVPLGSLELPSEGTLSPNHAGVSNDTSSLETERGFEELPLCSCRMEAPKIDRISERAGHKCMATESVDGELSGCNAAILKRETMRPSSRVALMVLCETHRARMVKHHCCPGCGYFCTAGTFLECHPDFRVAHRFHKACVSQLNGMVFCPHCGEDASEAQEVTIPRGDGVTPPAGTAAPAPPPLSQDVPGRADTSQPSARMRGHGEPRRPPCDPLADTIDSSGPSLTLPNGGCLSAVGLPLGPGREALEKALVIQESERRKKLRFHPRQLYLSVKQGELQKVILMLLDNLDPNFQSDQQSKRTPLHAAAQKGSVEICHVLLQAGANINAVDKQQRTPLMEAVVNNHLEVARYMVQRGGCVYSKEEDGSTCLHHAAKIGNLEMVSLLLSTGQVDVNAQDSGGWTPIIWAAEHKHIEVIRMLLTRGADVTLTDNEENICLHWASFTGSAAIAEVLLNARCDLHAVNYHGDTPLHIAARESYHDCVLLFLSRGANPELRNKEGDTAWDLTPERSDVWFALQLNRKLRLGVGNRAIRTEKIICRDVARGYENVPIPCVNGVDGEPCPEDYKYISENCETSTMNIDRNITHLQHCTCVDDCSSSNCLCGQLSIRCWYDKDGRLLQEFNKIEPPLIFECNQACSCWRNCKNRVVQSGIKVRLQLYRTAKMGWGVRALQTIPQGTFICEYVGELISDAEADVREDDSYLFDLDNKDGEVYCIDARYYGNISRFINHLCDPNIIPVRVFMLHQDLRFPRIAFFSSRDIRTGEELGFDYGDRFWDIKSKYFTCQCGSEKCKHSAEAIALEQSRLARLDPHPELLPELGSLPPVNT
Procedure, shortened: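 Step 1: enzyme (final 20 nM) with compound, 15 min RT. Step 2: substrate peptide 500 nM and SAM 20 uM, 2 h RT. Step 3: anti-H3K9me1 antibody and AlphaScreen beads, 10 min, then plate read.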
In the case of `NS(=O)(=O)c1cccc(NC(=O)c2cc3ccccc3o2)c1`, the “activity, negative = inhibition” value is reported as inactive: 8.68% [at 102 µM].
For `O=C(NCc1cccs1)c1cc(S(=O)(=O)N2CCOCC2)ccc1N1CCCC1`, the activity, negative = inhibition was inactive: -5.35% [at 2.33 µM].
With `Cc1ccc(Nc2cnn(C34CC5CC(CC(CC(=O)O)(C5)C3)C4)c(=O)c2Cl)cc1` the Potency was inconclusive: 3.16 µM [inhibitor, single point].
For `COc1cc(NS(=O)(=O)c2ccc(F)cc2)c(C(=O)O)cc1OC`, the Potency was inconclusive: 79.4 µM [inhibitor, single point].
In the case of `O=C1CCCN1C(=O)COc1ccccc1[N+](=O)[O-]`, the Potency is reported as inconclusive: 44.7 µM [inhibitor, partial curve, poor fit].
`Cc1ccc(C)c(N2CCN(C(=O)c3ccc(Cn4c(=S)[nH]c5ccc(N6CCOCC6)cc5c4=O)cc3)CC2)c1` was tested, and the Potency was active: 39.8 µM.
In the case of `CC(Sc1nc2cc([N+](=O)[O-])ccc2n1-c1ccc(F)cc1)C(=O)NCc1ccc2c(c1)OCO2` (configuration not stated), the Potency is reported as inconclusive: 3.16 µM [inhibitor, full curve, poor fit].
`Cc1c2cnn(-c3ccccc3)c(=O)c2c(C)n1CCCC(=O)NCCN1CCN(C)CC1` was tested, and the Potency was inconclusive: 50.1 µM [inhibitor, partial curve, poor fit].
In the case of `Cc1ccc(-n2c(SCC(=O)OC(C)C)nnc2-c2ccccn2)cc1`, the “activity, negative = inhibition” value is reported as inactive: -7.77%.
In the case of `Cc1ccc2c(c1)N/C(=C(\C=C(/Cl)[N+](=O)[O-])[N+](=O)[O-])N2`, the Potency is reported as active: 22.4 µM.
`Cc1ccc(CN2CCN(c3cccc4[nH]ccc34)CC2)cc1` was tested, and the Potency was inconclusive: 50.1 µM [inhibitor, partial curve, poor fit].
`Cc1ccc(CN2C(=O)c3ccccc3NC2c2cc(Br)ccc2O)cc1` (configuration not stated) was tested, and the Potency was inconclusive: 89.1 µM [inhibitor, single point].
`COc1ccc2cc(C3NC(=O)c4ccccc4N3)c(Cl)nc2c1` (configuration not stated) was tested, and the Potency was inconclusive: 39.8 µM [inhibitor, partial curve, poor fit].
In the case of `COc1ccc(CCNC(=O)CS(=O)Cc2nc(-c3cccs3)oc2C)cc1OC` (configuration not stated), the Potency is reported as inconclusive: 79.4 µM [inhibitor, partial curve, poor fit].
For `Cc1ccccc1OCC(=O)OCC(=O)NCc1ccco1`, the Potency was inconclusive: 79.4 µM [inhibitor, partial curve, poor fit].
`Cc1ccc(S(=O)(=O)Nc2cc3c(C(=O)Nc4ccccc4)c(C)oc3c3ccccc23)cc1` was tested, and the Potency was inconclusive: 15.8 µM [inhibitor, single point].
For `Cc1noc(C)c1C(=O)N1CCC2(CCCN(C(=O)Nc3cccc(C#N)c3)C2)CC1`, the activity, negative = inhibition was inactive: 2.53% [at 12.7 µM].
